Experimental data published in the CheMixHub viscosity set.
“And” between values parts separate entries of the source, which are not always exact repeats. Equal values may be shown once. This continues a long series; more values of the same kind are listed elsewhere.

Experiment: xn = mol fraction of the nth substance listed

COCCOCCOCCOCCOC + O
Conditions | viscosity [mPa·s]
298 K, 101 kPa, x1 = 0.1672 | 6.408
298 K, 101 kPa, x1 = 0.1972 | 6.2
298 K, 101 kPa, x1 = 0.2273 | 5.915
298 K, 101 kPa, x1 = 0.3237 | 5.112
298 K, 101 kPa, x1 = 0.4635 | 4.334
298 K, 101 kPa, x1 = 0.5569 | 4.179
298 K, 101 kPa, x1 = 0.6402 | 3.78
298 K, 101 kPa, x1 = 0.7613 | 3.495
298 K, 101 kPa, x1 = 0.8245 | 3.443
298.15 K, 101.33 kPa, x1 = 0.0053 | 1.082
298.15 K, 101.33 kPa, x1 = 0.0132 | 1.424
298.15 K, 101.33 kPa, x1 = 0.0263 | 2.173
298.15 K, 101.33 kPa, x1 = 0.0383 | 2.931
298.15 K, 101.33 kPa, x1 = 0.0507 | 3.724
298.15 K, 101.33 kPa, x1 = 0.064 | 4.511
298.15 K, 101.33 kPa, x1 = 0.077 | 5.162
298.15 K, 101.33 kPa, x1 = 0.0865 | 5.54
298.15 K, 101.33 kPa, x1 = 0.1017 | 6.014
298.15 K, 101.33 kPa, x1 = 0.1238 | 6.387
298.15 K, 101.33 kPa, x1 = 0.151 | 6.493
298.15 K, 101.33 kPa, x1 = 0.178 | 6.376
298.15 K, 101.33 kPa, x1 = 0.2201 | 6.024
298.15 K, 101.33 kPa, x1 = 0.2593 | 5.661
298.15 K, 101.33 kPa, x1 = 0.3289 | 5.077
298.15 K, 101.33 kPa, x1 = 0.3723 | 4.782
298.15 K, 101.33 kPa, x1 = 0.4051 | 4.585
298.15 K, 101.33 kPa, x1 = 0.4349 | 4.431
298.15 K, 101.33 kPa, x1 = 0.5545 | 3.959
298.15 K, 101.33 kPa, x1 = 0.5962 | 3.839
298.15 K, 101.33 kPa, x1 = 0.6747 | 3.662
298.15 K, 101.33 kPa, x1 = 0.7566 | 3.524
298.15 K, 101.33 kPa, x1 = 0.8127 | 3.436
298.15 K, 101.33 kPa, x1 = 0.833 | 3.402
298.15 K, 101.33 kPa, x1 = 0.9193 | 3.352
298.15 K, 101.33 kPa, x1 = 0.9742 | 3.306
298.15 K, 101.33 kPa, x2 = 0.0057 | 3.326

[Br-].[Li+] + O
101 kPa
Conditions | viscosity
293.15 K, x1 = 0.05 | 1.33 mPa·s
293.55 K, x1 = 0.05 | 1.32 mPa·s
295.35 K, x1 = 0.1 | 2.07 mPa·s
295.75 K, x1 = 0.1 | 2.02 mPa·s
296.75 K, x1 = 0.05 | 1.24 mPa·s
297.25 K, x1 = 0.05 | 1.22 mPa·s
298.15 K, x1 = 0.05 | 1.188 mPa·s
298.15 K, x1 = 0.08 | 1.478 mPa·s
298.15 K, x1 = 0.1 | 1.989 mPa·s
298.15 K, x1 = 0.2 | 3.254 mPa·s and 7.791 mPa·s and 7.79 mPa·s
301.05 K, x1 = 0.175 | 3.25 mPa·s
303.65 K, x1 = 0.05 | 1.09 mPa·s
305.55 K, x1 = 0.1 | 1.71 mPa·s
308.75 K, x1 = 0.05 | 0.981 mPa·s
309.85 K, x1 = 0.175 | 2.73 mPa·s
312.35 K, x1 = 0.1 | 1.57 mPa·s
312.65 K, x1 = 0.05 | 0.92 mPa·s
312.65 K, x1 = 0.08 | 1.12 mPa·s
313.15 K, x1 = 0.16 | 2.05 mPa·s
313.15 K, x1 = 0.19 | 2.7 mPa·s
313.15 K, x1 = 0.2 | 2.28 mPa·s and 3.18 mPa·s and 5.38 mPa·s
313.15 K, x1 = 0.22 | 3.98 mPa·s
313.15 K, x1 = 0.24 | 5.01 mPa·s
313.15 K, x1 = 0.25 | 6.3 mPa·s
313.95 K, x1 = 0.05 | 0.896 mPa·s
315.15 K, x1 = 0.2 | 2.4 mPa·s
315.35 K, x1 = 0.175 | 2.46 mPa·s
315.95 K, x1 = 0.1 | 1.46 mPa·s
318.85 K, x1 = 0.175 | 2.34 mPa·s
320.85 K, x1 = 0.1 | 1.39 mPa·s
322.45 K, x1 = 0.08 | 0.96 mPa·s
322.55 K, x1 = 0.05 | 0.785 mPa·s
323.15 K, x1 = 0.1 | 1.01 mPa·s
323.15 K, x1 = 0.12 | 1.18 mPa·s
323.15 K, x1 = 0.14 | 1.32 mPa·s
323.15 K, x1 = 0.15 | 1.46 mPa·s
323.15 K, x1 = 0.16 | 1.75 mPa·s
323.15 K, x1 = 0.19 | 2.25 mPa·s
323.15 K, x1 = 0.2 | 1.91 mPa·s and 2.61 mPa·s
323.15 K, x1 = 0.22 | 3.24 mPa·s
323.15 K, x1 = 0.24 | 4.04 mPa·s
323.15 K, x1 = 0.25 | 5.05 mPa·s
